Experimental data: article PMC6919601, “Identification of Plasmodium dipeptidyl aminopeptidase allosteric inhibitors by high throughput screening” (PLoS ONE, 2019)
Hit rate of the full screen: of about 110,000 compounds, about 230 (0.21%) showed an effect of 50% or more. The list shows a part of the results.

These compounds were tested against DPAP1 (Plasmodium falciparum, UniProt Q8IIJ9) (assay: primary screen, percent inhibition; read by cleavage of a fluorogenic dipeptide substrate; higher = more effect of the substance).
Parameters: species or system P. falciparum D10 trophozoite lysates; single well
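Also: 30 min substrate incubation versus DMSO and 10 µM JCP410 controls.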

Sequence of DPAP1 (Q8IIJ9 whole entry, looked up): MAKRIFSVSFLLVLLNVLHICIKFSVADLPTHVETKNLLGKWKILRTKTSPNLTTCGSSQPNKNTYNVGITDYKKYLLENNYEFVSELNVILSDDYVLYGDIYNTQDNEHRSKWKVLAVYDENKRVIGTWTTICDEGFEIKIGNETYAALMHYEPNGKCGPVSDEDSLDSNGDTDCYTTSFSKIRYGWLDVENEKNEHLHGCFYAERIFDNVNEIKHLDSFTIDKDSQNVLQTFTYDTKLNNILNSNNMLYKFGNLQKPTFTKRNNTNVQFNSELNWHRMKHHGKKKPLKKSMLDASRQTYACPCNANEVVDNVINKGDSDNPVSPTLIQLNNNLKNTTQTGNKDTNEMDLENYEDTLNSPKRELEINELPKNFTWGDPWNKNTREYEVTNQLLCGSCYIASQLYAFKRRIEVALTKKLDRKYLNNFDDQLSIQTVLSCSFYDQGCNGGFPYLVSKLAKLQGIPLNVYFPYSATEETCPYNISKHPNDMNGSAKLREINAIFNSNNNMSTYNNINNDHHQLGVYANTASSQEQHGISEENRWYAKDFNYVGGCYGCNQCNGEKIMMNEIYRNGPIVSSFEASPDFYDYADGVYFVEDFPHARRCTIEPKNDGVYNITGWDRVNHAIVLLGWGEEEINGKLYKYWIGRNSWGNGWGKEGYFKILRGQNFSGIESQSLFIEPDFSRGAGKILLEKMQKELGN

| Compound | % Inhibition @ 10 uM [%] |
| --- | --- |
| CC1CN(C(=O)Cn2cc(SCC(=O)NCCc3ccccc3)c3ccccc32)CC(C)O1 (stereo not shown) | 8.23 |
| CCOc1ccc(C(=O)Nc2nc3ccccc3s2)cc1 | 8.21 |
| COc1ccc(C)cc1-n1c(C)cc(/C=C2\C(=N)N3N=C(N4CCOCC4)SC3=NC2=O)c1C | 0.0579 |
| CCOC(=O)N1CCC(c2nnc(-c3ccc(Cl)cc3Cl)o2)CC1 | -1.03 |
| CN1CCC(N(C)Cc2cc(Cl)ccc2[N+](=O)[O-])CC1 | 4.73 |
| O=C(Cn1cnc2c(oc3ccccc32)c1=O)NCC1CCCO1 (stereo not shown) | -7.67 |
| Cn1cnc2c(sc3nc4c(cc32)COC(C)(C)C4)c1=O | 3.47 |
| O=C(NCCc1ccccc1)C1CCN(S(=O)(=O)N2CCOCC2)CC1 | 5.23 |
| CCOC(=O)N1CCN(C2CCN(CCc3ccccc3)CC2)CC1 | 0.217 |
| Cc1nc(=O)c(-c2ccccc2)c(C)n1-c1cccc(Br)c1 | -3.35 |
| Cc1ccsc1CN(C(=O)c1cc2ccccc2oc1=O)C1CCS(=O)(=O)C1 (stereo not shown) | -6.5 |
| COc1ccc(CC(=O)Nc2ccc(S(=O)(=O)N3CCCCCC3)cc2)cc1 | 8.49 |
| CC(=O)c1ccc(NS(=O)(=O)c2ccc(N)cc2)cc1 | 0.408 |
| COc1ccc(Br)cc1CNCc1c(C(=O)O)[nH]c2cc(C)ccc12 | -2.39 |
| Fc1ccccc1CN1CCN(c2ccccc2Cl)CC1 | -2.7 |
| COc1ccc(C(=O)NCc2cn3c(C)csc3n2)c(OC)c1 | 2.57 |
| COc1ccc(CCNC(=O)c2cnn3c(C)c(Cc4cc(C)ccc4C)c(C)nc23)cc1OC | -2.26 |
| Cc1ccc(CNc2nc3ccccc3c3nc(-c4ccncc4)nn23)cc1 | 0.981 |
| O=C(Nc1cc2nn(-c3ccccc3)nc2cc1Cl)c1ccc2c(c1)OCCO2 | -1.06 |
| O=C(COc1ccc2ccccc2c1)Nc1c2c(nn1-c1cccc(Cl)c1)CSC2 | 4.51 |
| COc1cccc(-c2nc(CS(=O)(=O)CC(=O)N3CCN(Cc4ccccc4)CC3)c(C)o2)c1 | -7.53 |
| CC(C)Cn1c(SCc2nc(-c3cccs3)no2)nnc1-c1ccncc1 | -2.21 |
| Cc1noc(C)c1-c1ccc(C(=O)N[C@@H](CC(C)C)C(=O)NCC#N)cc1 | -0.207 |
| O=C(Nc1ccccc1Br)c1cccc2c1-c1ccccc1C2=O | -4.14 |
| CCN(CC)C(=O)c1ccc(SC)cc1OC | -0.413 |

| Compound | % Inhibition @ 10 uM [%] |
| --- | --- |
| COc1ccc(NC(=O)CN(c2cc(Cl)ccc2OC)S(C)(=O)=O)c(OC)c1 | -0.185 |
| COc1cc(CC(C)N2CCc3cc(OC)c(OC)cc3C2)ccc1O (stereo not shown) | -1.75 |
| Cc1cc(C)nc(NC(=O)NS(=O)(=O)N2CCCCC2)n1 | -0.274 |
| CCCSC1=C(C#N)C(c2ccccc2C)CC(=O)N1 (stereo not shown) | 5.05 |
| O=C(CSCc1cnn(-c2ccccc2)c1-n1cccc1)N1CCN(Cc2ccccc2)CC1 | -1.3 |
| CCCCCc1ccc(-c2ccc(C(=O)Nc3ccc(Cl)c4c3C(=O)c3ccccc3C4=O)cc2)cc1 | -0.268 |
| CCSC1=NSC2=NC(=O)/C(=C\c3ccc(OS(C)(=O)=O)c(OC)c3)C(=N)N12 | -11.3 |
| CCCCOC(=O)C1=C(C)NC(=O)NC1c1ccc(O)c(OCC)c1 (stereo not shown) | 2.7 |
| O=C1CCC(C(=O)Nc2cccc(C(F)(F)F)c2)N1 (stereo not shown) | -4.03 |
| COc1ccc(NC(=O)c2ccccc2Cl)c(N)c1 | 1.92 |
| Cc1ccc(C(=O)C2=C(O)C(=O)N(Cc3ccco3)C2c2cccc(Cl)c2)o1 (stereo not shown) | -9.98 |
| COc1cc(OC)cc(C(=O)Nc2cccc3c2C(=O)N(c2ccccc2)C3=O)c1 | 16.5 |
| c1ccc(-c2ccc(CNCC3CCCO3)cc2)cc1 (stereo not shown) | 2.38 |
| COc1ccc(C(=O)N/C(=C\c2ccc3c(c2)OCO3)C(=O)N2CCOCC2)cc1 | -2.87 |
| O=c1cnnc2sc(SCc3ccccc3)nn12 | 4.18 |
| CCOc1ccc(CCNC(=O)C2=C(C)C(=O)OC23CCC(C)CC3)cc1 (stereo not shown) | -0.138 |
| COc1ccc2cc3cc(C(=O)NCCN4CCN(Cc5ccccc5)CC4)sc3nc2c1 | 94.4 |
| CCC(C)NC(=O)CCNS(=O)(=O)c1ccc(Br)cc1 (stereo not shown) | -0.406 |
| CCCC1=C(C(=O)OCC)C(c2ccc(F)c(F)c2)C(C#N)=C(N)O1 (stereo not shown) | -3.13 |
| OCCN1CCN(c2nc3ccccc3nc2-c2ccccc2)CC1 | -1.05 |
| Cc1ccc(C)n1-c1nnc(N2CCCC(C(=O)NC(C)C)C2)s1 (stereo not shown) | -4.15 |
| CC(=O)N[C@@H](Cc1ccccc1)C(=O)N[C@@H](C)c1ccccc1 | 14.9 |
| CC(C)(C(=O)O)c1ccc([N+](=O)[O-])cc1 | 1.62 |
| CN1CCCN(Cc2ccc(Br)cc2)CC1 | -2.03 |
| CCO/C(O)=C1\C(C)=Nc2nnnn2C1c1ccccc1OCC (stereo not shown) | -1.62 |

| Compound | % Inhibition @ 10 uM [%] |
| --- | --- |
| COC(=O)C1=CN(C(C)c2ccccc2)C=C(C(=O)OC)C1c1ccc(Cl)c(Cl)c1 (stereo not shown) | -1.46 |
| CC(C)(C)Cc1nnc(NC(=O)CSCc2ccccc2)s1 | -4.84 |
| CCc1ccc(C2=CC(c3ccccc3C)n3ncnc3N2)cc1 (stereo not shown) | -1.62 |
| CC1CN(C(=O)CCN2C(=O)c3ccccc3C2=O)CC(C)O1 (stereo not shown) | 2.67 |
| CC1=N/C(=C2/C=C(c3cccs3)Oc3ccccc32)C(=O)O1 | 3.54 |
| Cc1cccc(-c2nnc(NC(=O)c3cccc(C(F)(F)F)c3)s2)c1 | 1.67 |
| N#CC1(Nc2ccccc2)C(=O)Nc2ccccc21 (stereo not shown) | -8.23 |
| Clc1nc(-c2ccccc2)cc(-c2ccc(Br)cc2)n1 | 2.46 |
| COC(=O)CC(NC(=O)c1ccc(C)cc1)c1ccccc1 (stereo not shown) | 3.06 |
| O=C(COc1ccccc1Cl)N1CCc2ccccc21 | -3.72 |
| CC(NC(=O)c1cccnc1)c1ccc(O)cc1 (stereo not shown) | -8.42 |
| CCCCNC(=O)CC(NCCCC)c1ccccc1O (stereo not shown) | 7.92 |
| CCc1cccc(C)c1NC(=O)C1C2CCC(O2)C1C(=O)O (stereo not shown) | -3.03 |
| CC(C)Cn1cc(NC(=O)N(Cc2ccccc2)C(C)C)c2ccccc2c1=O | -6.93 |
| Cn1c2ccccc2c2c(C(=O)NC3CCN(Cc4ccccc4)CC3)cn(C3CCCC3)c(=O)c21 | 0.163 |
| O=C1CC(c2ccccc2F)NC(NC(=O)c2ccc(OC(F)F)cc2)=N1 (stereo not shown) | 3.27 |
| COc1ccc(CCN2C(=O)C3C(C2=O)C2C=CC3C23CC3)cc1OC (stereo not shown) | -4.43 |
| COc1ccc(-n2nnnc2S(=O)(=O)Cc2ccc(C(=O)O)cc2)cc1 | 4.32 |
| O=C(COc1nsnc1N1CCOCC1)c1ccccc1 | -1.15 |
| COc1ccc(-c2cc(C(=O)NC(C)C)no2)cc1OC | -5.09 |
| O=C(CN1CCCCC1)Nc1ccc(OC(F)(F)F)cc1 | 3.29 |
| CCOc1cccc2cc(-c3nc(-c4cc(OC)c(OC)c(OC)c4)no3)c(=O)oc12 | 9.86 |
| CC1=NN(c2ccccc2)C(c2ccccc2)C1 (stereo not shown) | 5.37 |
| Cc1cc(Br)ccc1NC(=O)Cn1nc(C(F)F)cc1C | -4.82 |
| Cc1cc(C)c(C(=O)/C(=C/c2ccco2)c2ccccc2)c(O)n1 | 15.4 |

| Compound | % Inhibition @ 10 uM [%] |
| --- | --- |
| O=C(Nc1ccc2c(c1)OCCO2)c1cccc(C(=O)Nc2ccc3c(c2)OCCO3)c1 | -6.38 |
| Cc1cc(C)n(-c2nc3ccccc3nc2N2CCN(S(=O)(=O)c3cccc(C#N)c3)CC2)n1 | -0.0709 |
| CCOCCCNc1ncnc2oc(C)c(C(=O)O)c12 | -7.65 |
| O=S(=O)(c1ccc2c3c(cccc13)CC2)N1CCN(Cc2ccccc2)CC1 | 1.76 |
| CN(Cc1ccco1)S(=O)(=O)c1nnc(NC(=O)CN2C(=O)c3ccccc3C2=O)s1 | 5.8 |
| Cc1ccc(Cn2c(SCc3ccc(C(=O)NCc4cccnc4)cc3)nc3ccncc32)cc1 | -2.37 |
| COc1ccc2c(CNCc3ccc(OC(C)C)cc3)c(C(=O)O)n(Cc3ccccc3C)c2c1 | 4.14 |
| COC(=O)C1=CN(CCc2ccccc2)C=C(C(=O)OC)C1c1ccc(C)s1 | -5 |
| Clc1ccc(CN2CCN(Cc3ccc(Cl)cc3)CC2)cc1 | -4.7 |
| CC1CCCC(C)N1C(=O)c1cccc(C(=O)N2C(C)CCCC2C)n1 (stereo not shown) | -0.67 |
| CC[n+]1c(C)n(CC(O)COc2ccc(F)cc2)c2ccccc21 (stereo not shown) | 1.84 |
| COc1ccc(CN2CCN(C(=O)c3ccc(F)cc3)CC2)cc1Br | 8.09 |
| Cc1cc(C)c(S(=O)(=O)c2ccccc2C(=O)O)c(C)c1 | 5.68 |
| COCC1=C(C(=O)OC)C(c2cccc3ccccc23)C(C#N)=C(N)O1 (stereo not shown) | -7.3 |
| CCCCN(CCCNC(=O)Cn1nc(-c2ccccc2)ccc1=O)Cc1ccccc1 | 3.79 |
| COc1ccccc1CNC(C)Cc1cccc(C(F)(F)F)c1 (stereo not shown) | -1.21 |
| CCN1CCCC1CNC(=O)Cn1nc(C)n2c(cc3cc(F)ccc32)c1=O (stereo not shown) | 6.35 |
| Cc1nc2sccn2c(=O)c1N | -5.05 |
| Nc1c(C(=O)N2CCc3ccccc3C2)sc2nc3c(cc12)CCCCCC3 | 6.08 |
| CCCN1C(=O)NC2C1NC(=O)N2CCC (stereo not shown) | 20.5 |
| COc1ccccc1OCC(=O)N(Cc1ccccc1F)C1CCS(=O)(=O)C1 (stereo not shown) | -3.12 |
| CCOc1cccc(C(=O)Nc2cc(-c3nc4ncccc4o3)ccc2Cl)c1 | 1.52 |
| CCc1ccc(OCC(=O)Nc2cccc(C#N)c2)c(Br)c1 | 0.472 |
| Cc1nc2nc(COc3ccccc3)nn2c(O)c1C | 1 |
| Cn1c(CN2CCN(Cc3ccccc3)CC2)c(C#N)c2ccccc21 | 17.5 |
